Reference: PubChem BioAssay AID651820 (National Center for Advancing Translational Sciences (NCATS), 2012)
Values joined by “and” are separate entries in the source; they are usually repeats but may differ in a detail not shown here. Equal entries are not always repeated. The whole screen tested about 340,000 compounds, of which about 12,000 (3.5%) were called active. This list was built around the results that the source calls inconclusive (neither active nor inactive); the mix of calls is not that of the screen. Calls come from the whole dose curve; as a rule, active = well fitted inhibition curve with a large enough effect; inconclusive = small, poorly fitted or top-dose-only effect, or another doubt; inactive = no such curve, though single readings can be large or run the other way. Where the call is inconclusive, the potency comes from a doubtful curve fit. More than one record can exist for a structure, and the calls need not agree.

assay: qHTS Assay for Inhibitors of Hepatitis C Virus (HCV); details: Huh7.5.1 HCVcc-Cre (HCVcc is cell-culture hepatitis C virus) infection, luciferase reporter, 44 h; series mostly up to 41.8 µM
Outline: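 A cell-based infection assay in which seeded cells (1,000 per well) receive test compound after 4 h, are inoculated with HCVcc-Cre at approximately 0.5 moi, and are incubated 44 h before luminescence detection.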
Potency is the fitted concentration of half-maximal effect; tags give direction and shape of the fitted curve.

SMILES | Potency
COc1cccc(NC(=O)c2ccc(NC(=O)C(C)(C)C)cc2)c1 | inconclusive: 31.6 µM [inhibitor, single point]
COC(=O)c1cc(S(=O)(=O)NCc2ccc3c(c2)OCO3)cn1C | inactive
COc1ccccc1CNC(=O)N1CCN(c2ccccc2Cl)CC1 | inactive
O=C(OCCN1CCN(C2=NS(=O)(=O)c3ccccc32)CC1)c1cccc(Br)c1 | inconclusive: 22.4 µM [inhibitor, single point]
COC(=O)C1=C(c2ccc(Cl)c(C(F)(F)F)c2)C[C@@H]2CC[C@H]1N2C(=O)NCc1ccco1 | inactive
Cc1ccc(C)c(-n2cc(CNCCc3cnccn3)c(-c3ccccc3)n2)c1 | inactive
CC(C)c1ccc(NC(=O)CN2C(=O)NC3(CCCCCCC3)C2=O)cc1 | inconclusive: 11.2 µM [inhibitor, partial curve]
O=[N+]([O-])c1cc(O)c2ncccc2c1 | active: 0.562 µM
COc1ccc(C2Nc3ccccc3C(=O)N2Cc2ccco2)cc1CN1C(=O)c2ccccc2C1=O (stereo not drawn) | inconclusive: 5.62 µM [inhibitor, single point]
CC(=O)Nc1ccc(/C=N/Nc2nc3ccccc3[nH]2)cc1 | inconclusive: 10 µM [inhibitor, partial curve]
CCCCn1c(NS(=O)(=O)c2ccc(C)cc2)c(S(=O)(=O)c2ccccc2)c2nc3ccccc3nc21 | inconclusive: 31.6 µM [inhibitor, single point]
O=S(=O)(NCc1ccccc1)c1ccc(NC(=S)NCc2ccco2)cc1 | inconclusive: 22.4 µM [inhibitor, single point]
Cc1ccc(-n2nc3c(c2NC(=O)CC(C)C)CS(=O)C3)cc1 (stereo not drawn) | inactive
O=C(Nc1ccc(N2CCOCC2)cc1)c1cccc(S(=O)(=O)N2CCCCC2)c1 | inactive and active: 10 µM
COc1nc(-c2ccccc2)ncc1S(=O)(=O)c1ccccc1 | inconclusive: 0.794 µM [inhibitor, full curve, poor fit]
c1ccc(CNc2nc(-c3cccs3)nc3ccccc23)nc1 | inconclusive: 14.1 µM [inhibitor, partial curve]
O=C(NC1CC1)C1=NOC(CNc2ncc(C(F)(F)F)cc2Cl)C1 (stereo not drawn) | inconclusive: 14.1 µM [inhibitor, single point]
C[C@@H]1C(c2ccccc2)=NN(c2ccc(Br)cc2)[C@H]1C(=O)N1CCOC1=O | inconclusive: 10 µM [inhibitor, partial curve]
CN(Cc1cc(Cl)cc(Cl)c1)CC(C(=O)c1ccccc1)c1ccccc1 (stereo not drawn) | inconclusive: 22.4 µM [inhibitor, single point]
Cc1cc(Cn2nnnc2-c2ccncc2)cc(C)c1O | inactive
CCOC(=O)N1CCC(NC(=O)c2ccc3c(c2)N=C(C)c2c(C)ccc(C)c2S3)CC1 | inconclusive: 3.98 µM [inhibitor, partial curve]
COC(=O)c1ccccc1NC(=O)c1cccs1 | inconclusive: 25.1 µM [inhibitor, single point]
CCOc1cc(/C=N\NC(=O)C2C(=O)NCC2c2ccccc2)ccc1OC (stereo not drawn) | inconclusive: 31.6 µM [inhibitor, single point]

SMILES | Potency
CNc1ccc(C(=O)OCC(=O)NC(=O)NC2CCCCC2)cc1[N+](=O)[O-] | inconclusive: 15.8 µM [inhibitor, single point]
O=C(NC(=S)Nc1cccc(Cl)c1N1CCCC1)c1ccc(-c2cccc([N+](=O)[O-])c2)o1 | inconclusive: 7.08 µM [inhibitor, partial curve]
Cc1ccc(COc2ccc(Br)cc2/C=N/O)cc1 | inconclusive: 22.4 µM [inhibitor, single point]
CCOc1ccc(-c2n[nH]c(C)c2-c2ccccn2)c(O)c1 | inactive
COc1ccc(OC)c(CN2CCN(C(=O)c3cccc(S(=O)(=O)Nc4ccc(F)cc4)c3)CC2)c1 | inconclusive: 25.1 µM [inhibitor, single point]
CCOC(=O)N1CCN(C(=O)CCCOc2ccccc2)CC1 | inactive
O=Cc1ccc(-c2ccc(C(=O)O)cc2)o1 | inactive
O=C(OCC(=O)N1CCCC1)c1c2c(nc3ccccc13)CCCCC2 | inconclusive: 4.47 µM [inhibitor, partial curve, poor fit]
COc1ccc(/C=N/Nc2nncn2N)cc1Br | inactive
C=CCn1c(SCC(=O)Nc2ccc3c(c2)OCO3)nnc1-c1cc(Br)ccc1O | inconclusive: 7.94 µM [inhibitor, partial curve]
Cc1cc(F)ccc1S(=O)(=O)N(CC(=O)N1CCOCC1)CC(=O)N1CCOCC1 | inactive
COc1ccc(OC)c(CNC(=O)CCCn2ccc3cc(S(=O)(=O)N4CCCC4)ccc32)c1 | active: 10 µM
O=C(CCl)Nc1nc(-c2ccco2)c(-c2ccco2)s1 | inconclusive: 14.1 µM [inhibitor, single point]
Cc1csc(NC(=O)CSc2nccn2C)n1 | inactive
COCCCNC(=O)COc1cc2c(c3oc(=O)c(C)c(C)c13)CCC(C)(C)O2 | inactive
O=C(Nc1ccc2nc3ccccc3nc2c1)c1ccc(Br)cc1 | inconclusive: 6.31 µM [inhibitor, partial curve, poor fit]
COc1ccc(N2CCN(CCNC(=O)Nc3cc(Cl)ccc3OC)CC2)cc1 | inconclusive: 12.6 µM [inhibitor, partial curve, poor fit]
CSCCC(NS(=O)(=O)c1cccs1)C(=O)NCc1ccc(C)cc1 (stereo not drawn) | inconclusive: 4.47 µM [inhibitor, partial curve]
COc1ccc(S(=O)(=O)Nc2ccc3c(c2)C(=O)N([C@H](C)CO)C[C@H](C)[C@@H](CN(C)S(C)(=O)=O)O3)cc1 | inactive
CCn1c2ccccc2c2nnc(SCCN3CCCCC3)nc21 | inconclusive: 11.2 µM [inhibitor, single point]
COc1ccc(-n2c(COc3ccc(Cl)cc3)nnc2SCc2ccc(C#N)cc2)cc1 | inconclusive: 0.501 µM [inhibitor, full curve, poor fit]
CC(=O)Nc1ccc(C(=O)OCC(=O)Nc2ccccc2Sc2ccccc2)cc1 | inconclusive: 3.16 µM [inhibitor, full curve]
CC1Sc2ccc(S(=O)(=O)N3CCC(C(=O)N(C)Cc4ccco4)CC3)cc2NC1=O (stereo not drawn) | inconclusive: 14.1 µM [inhibitor, single point]

SMILES | Potency
Cc1cc(C)c(C#N)c(SCCS(=O)(=O)Cc2ccc(Cl)cc2)n1 | inactive
CCOc1ccc(CCNC(=O)c2nn(C)c3c2CS(=O)(=O)c2ccccc2-3)cc1 | inconclusive: 1.26 µM [inhibitor, partial curve]
COC(=O)c1ccc(SCc2cnc(Cl)s2)cc1 | inactive
CN(Cc1cccnc1)Cc1cn(Cc2ccccc2)nc1-c1ccc2c(c1)OCO2 | inconclusive: 10 µM [inhibitor, partial curve]
O=C(Nc1cccc(-c2cc3ccccc3oc2=O)c1)c1ccc(Br)o1 | inconclusive: 11.2 µM [inhibitor, partial curve]
CN(C)c1c2ccccc2nc2c(F)c(F)c(F)c(F)c12 | inconclusive: 31.6 µM [inhibitor, single point]
Cc1ccc(OCCn2cc(C(=S)N3CCCC3)c3ccccc32)cc1C | inconclusive: 2.24 µM [inhibitor, full curve]
O=C(Nc1ccc(N2CCCCC2)cc1)c1ccccc1 | inconclusive: 3.98 µM [inhibitor, partial curve]
Nc1ccc(C(=O)N2CCCC2)cc1 | inactive
C/C(=N\OC(=O)NC(C)C)c1sc(-c2ccc(Cl)cc2)nc1C | inconclusive: 11.2 µM [inhibitor, partial curve]
O=C(CCCn1c(=S)[nH]c2cc3c(cc2c1=O)OCO3)N1CCN(c2ncccn2)CC1 | inconclusive: 31.6 µM [inhibitor, single point]
C=CCn1c(=O)/c(=C/c2ccsc2)s/c1=C(\C#N)C(=O)NCCN1CCOCC1 | inactive
CCN(C(=O)CSc1nnc(CNc2cccc(OC)c2)n1C1CCCCC1)C1CCS(=O)(=O)C1 (stereo not drawn) | inconclusive: 7.08 µM [inhibitor, partial curve, poor fit]
COc1ccc(NC(=O)/C(C#N)=C/C=C/c2ccco2)cc1 | inconclusive: 31.6 µM [inhibitor, single point]
CC1CCN(c2ccccc2NC(=S)NC(=O)c2cccs2)CC1 | inconclusive: 11.2 µM [inhibitor, partial curve]
CCC(C)NC(=O)CCn1c(=O)c2cccn2c2ccc(F)cc21 (stereo not drawn) | inconclusive: 5.62 µM [inhibitor, single point]
Cc1nn(C)c(C)c1S(=O)(=O)N1CCCC(C(=O)N2CCN(c3ccc(Cl)cc3)CC2)C1 (stereo not drawn) | inactive and inconclusive: 25.1 µM [inhibitor, single point]
Cc1nc(C(=O)NCCC(C)C)sc1C1(C)CC(c2ccccc2)=NO1 (stereo not drawn) | inconclusive: 11.2 µM [inhibitor, partial curve]
CN(C)C(CNC(=O)C1CC(=O)N(Cc2ccccc2)C1)c1ccccc1 (stereo not drawn) | inactive
COc1ccc(OC)c(CN2CCCC(C(=O)c3ccccc3SC)C2)c1 (stereo not drawn) | active: 10 µM
O=C1/C(=C\c2ccco2)CCC/C1=C\c1ccco1 | inconclusive: 31.6 µM [inhibitor, single point]
COc1cc(C(=O)NN=Cc2ccc(N(CCCl)CCCl)cc2)cc(OC)c1OC | inconclusive: 0.251 µM [inhibitor, full curve, poor fit]
